Measurements published in PMC2812487.
No constants are given. Whether binding was seen depends on the method and setting. Some binding calls cover weakened binding; strength is not graded here.

Amino acid sequences for entries named in this document (tags omitted). Residues count along the entry.
UniProt P43626, residues 22-245: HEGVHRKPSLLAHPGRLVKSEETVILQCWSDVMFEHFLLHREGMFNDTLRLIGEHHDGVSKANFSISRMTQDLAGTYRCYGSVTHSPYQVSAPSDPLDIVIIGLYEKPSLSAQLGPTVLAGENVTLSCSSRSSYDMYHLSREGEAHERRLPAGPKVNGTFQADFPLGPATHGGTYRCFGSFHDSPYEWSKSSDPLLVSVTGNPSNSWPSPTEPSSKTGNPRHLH

Key:
Experiment in all cases: flow cytometry on cells; 221 transfectants (50,000 cells) stained with Ig fusion proteins at 50 µg/ml for 2 h on ice (4°C) in FACS medium (1x PBS, 0.5% BSA, 0.05% NaN3); detected with PE-conjugated F(ab′)2 goat anti-human Fc; only the binder purified
[1] = target: HLA-G M76V on 721.221 cells (human) (UniProt P17693)
[2] = target: HLA-G M76V+Q79R on 721.221 cells (human) (UniProt P17693)
[3] = target: HLA-G M76V+Q79R+T80K on 721.221 cells (human) (UniProt P17693)
[4] = target: HLA-G M76V+Q79R+T80N on 721.221 cells (human) (UniProt P17693)
[5] = target: HLA-G Q79R on 721.221 cells (human) (UniProt P17693)
[6] = target: HLA-G T80K on 721.221 cells (human) (UniProt P17693)
[7] = target: HLA-G T80N on 721.221 cells (human) (UniProt P17693)
[8] = target: HLA-G, wild type, on 721.221 cells (human) (UniProt P17693)

binding [1]: no binding (tested: 50 µg/ml)
binding [2]: no binding (tested: 50 µg/ml)
binding [3]: binds
binding [4]: no binding (tested: 50 µg/ml)
binding [5]: no binding (tested: 50 µg/ml)
binding [6]: no binding (tested: 50 µg/ml)
binding [7]: no binding (tested: 50 µg/ml)
binding [8]: no binding (tested: 50 µg/ml)
Substance: KIR2DL1-Ig (from UniProt P43626 22-245) (Fc fusion)
